This note sets out measurements from the supplement of paper PMC8728848.

Assay in all cases: glycan array binding signal (z-score within array); higher = stronger binding
Holding throughout (settings): glycan notation: IUPAC condensed, linker removed

The subject of test [1] is Neu5Ac(a2-3)Gal(b1-4)GlcNAc(b1-3)Gal(b1-4)GlcNAc. The method, boiled down: (§1)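 From the Consortium for Functional Glycomics database, 3228 arrays were curated, keeping only those whose protein sequence was available. Binding is given as a within-array Z-score averaged across arrays sharing a protein sequence and across linkers. Negative Z-scores can be read as non-binding.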

Test [2] relates to Neu5Ac(a2-3)Gal(b1-4)GlcNAc(b1-6)[Gal(b1-3)]GalNAc. The method, boiled down: as §1
The test system of test [3] is Neu5Ac(a2-3)Gal(b1-4)[Fuc(a1-3)]GlcNAc(b1-3)Gal. The gist of the method: as §1
For a further test, the system named is Neu5Ac(a2-3)Gal(b1-4)Glc. The gist of the method: as §1
In a further test the test system is Neu5Ac(a2-3)GalNAc. The gist of the method:
as §1

For test [4], the system named is Neu5Ac(a2-3)Gal(b1-4)[Fuc(a1-3)]GlcNAc(b1-6)[Gal(b1-3)]GalNAc. The method, boiled down:
as §1

For test [5], the system named is Neu5Ac(a2-3)Gal6S(b1-4)[Fuc(a1-3)]GlcNAc. The method, boiled down: as §1

The entries come from a sample that favours the strongest signals as a whole.

For “Meso764 (Homo sapiens) (chain not printed)”, in test [1], the “glycan array binding signal (z-score)” value was -0.444.
On to “Serum Amyloid P component (Homo sapiens) (chain not printed)”, for which the “glycan array binding signal (z-score)” value in test [2] came out at 1.23.
For “M-Ficolin A256V (Homo sapiens) (chain not printed)”, in test [3], the “glycan array binding signal (z-score)” value was -0.178.
Take “Gal 8-short (Homo sapiens) (chain not printed)”: the figures for the “glycan array binding signal (z-score)” value in the test with Neu5Ac(a2-3)Gal(b1-4)Glc and with Neu5Ac(a2-3)GalNAc were 1.19 and -0.721, respectively.
“H-Ficolin (Homo sapiens) (chain not printed)”: in test [4], the “glycan array binding signal (z-score)” value stood at 3.43.
As for “M-Ficolin G221F (Homo sapiens) (chain not printed)”, the “glycan array binding signal (z-score)” value in test [5] is -0.162.
